For 19 molecules, enrichment score results are on record in the supplement of paper PMC10369915.

This is one part of the list. No stated cut-off is given here; in the data, active = 3.2 or more and inactive = the rest. Most of these values are background signal.
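Further: displayed peptides selected on beads carrying the immobilized SH2 domain, with library peptides lacking any tyrosine serving as negative controls.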

For one test, the target named is SHP2 C-SH2 domain E139D. In words: enrichment score (SH2-bound / input frequency) (ratio); bacterial display of known human phosphotyrosine sites (pTyr-Var adds point mutants) read by sequencing; higher = stronger binding; tyrosines were phosphorylated by kinases first. The settings on record: peptide library: pTyr-Var.
As for PEFINYHQHNS [BTK_Y361_L358F], the enrichment score was inactive: 1.27.

In the case of GDKENYGLPQP [BUB1_Y538_N534D], the enrichment score is inactive: 0.489.

In the case of CPSLLYSPVSS [CAMKK2_Y128_P127L], the enrichment score is inactive: 1.02.

Regarding VVKLTYNENDN [CAMKK2_Y183_A182T], the enrichment score was inactive: 1.15.

Turning to GVIRHYVVCST [BTK_Y334], the enrichment score was inactive: 0.821.

Consider STSYDYCRVPM [BST2_Y8], for which the enrichment score was inactive: 0.78.

With VTSLKYSTSPF [BRIP1_Y916_YF], the enrichment score was inactive: 0.996.

In the case of QLFGAYLRIHA [BSCL2_Y213_YF], the enrichment score was inactive: 2.84.

For KKYFSYAWPFY [BRDT_Y291_H288Y], the enrichment score is inactive: 2.86.

On to PRPAGYPSTVS [CACNA1C_Y1832], for which the enrichment score was inactive: 0.697.

As for VTRKEYFIFLE [CAMKV_Y95], the enrichment score is inactive: 3.02.

Consider VHFLVYHHHHH [CACNA1H_Y519_H516Y_YF], for which the enrichment score was active: 3.55.

CEAMEYQESKQ [BTK_Y511_L512Q]: the enrichment score is inactive: 0.695.

For the molecule KPPPSYESEEE [BRD4_Y599_T598S], the enrichment score is inactive: 0.36.

Regarding TRLAQYDSNSK [BMX_Y216_S212R], the enrichment score was inactive: 0.623.

With TSLAQYDSNSK [BMX_Y216], the enrichment score is inactive: 0.584.

With DGQVNYEGFVQ [CALM1_Y139_E141G], the enrichment score is inactive: 0.822.

Regarding HKLSYNEYDFE [BTK_Y40_Y40N], the enrichment score was inactive: 0.858.

Turning to FSTPPYLLEAA [BRIP1_Y921_S919P_YF], the enrichment score is inactive: 0.848.

Another test deals with SHP2 C-SH2 domain wild-type. The description is as above. The settings on record: peptide library: pTyr-Var.
As to PEFINYHQHNS [BTK_Y361_L358F], the enrichment score was inactive: 0.806.

Regarding GDKENYGLPQP [BUB1_Y538_N534D], the enrichment score was inactive: 0.49.

Take CPSLLYSPVSS [CAMKK2_Y128_P127L]: the enrichment score is inactive: 1.18.

As to VVKLTYNENDN [CAMKK2_Y183_A182T], the enrichment score is inactive: 0.923.

As for GVIRHYVVCST [BTK_Y334], the enrichment score was inactive: 0.764.

Turning to STSYDYCRVPM [BST2_Y8], the enrichment score is inactive: 0.685.

On to VTSLKYSTSPF [BRIP1_Y916_YF], for which the enrichment score is inactive: 0.751.

For QLFGAYLRIHA [BSCL2_Y213_YF], the enrichment score was inactive: 3.03.

Take KKYFSYAWPFY [BRDT_Y291_H288Y]: the enrichment score was active: 3.22.

For PRPAGYPSTVS [CACNA1C_Y1832], the enrichment score was inactive: 0.583.

As to VTRKEYFIFLE [CAMKV_Y95], the enrichment score is inactive: 3.14.

In the case of VHFLVYHHHHH [CACNA1H_Y519_H516Y_YF], the enrichment score is active: 3.21.

Consider CEAMEYQESKQ [BTK_Y511_L512Q], for which the enrichment score was inactive: 0.892.

As for KPPPSYESEEE [BRD4_Y599_T598S], the enrichment score is inactive: 0.521.

For the molecule TRLAQYDSNSK [BMX_Y216_S212R], the enrichment score was inactive: 0.713.

In the case of TSLAQYDSNSK [BMX_Y216], the enrichment score was inactive: 0.512.

As to DGQVNYEGFVQ [CALM1_Y139_E141G], the enrichment score was inactive: 0.576.

As to HKLSYNEYDFE [BTK_Y40_Y40N], the enrichment score is inactive: 0.667.

For the molecule FSTPPYLLEAA [BRIP1_Y921_S919P_YF], the enrichment score was inactive: 0.826.

A further test deals with SHP2 N-SH2 domain L43F. Described as above. The settings on record: peptide library: pTyr-Var.
As for PEFINYHQHNS [BTK_Y361_L358F], the enrichment score is inactive: 1.13.

Take GDKENYGLPQP [BUB1_Y538_N534D]: the enrichment score is inactive: 0.468.

For the molecule CPSLLYSPVSS [CAMKK2_Y128_P127L], the enrichment score is inactive: 0.925.

For the molecule VVKLTYNENDN [CAMKK2_Y183_A182T], the enrichment score was inactive: 0.779.

On to GVIRHYVVCST [BTK_Y334], for which the enrichment score was inactive: 0.744.

On to STSYDYCRVPM [BST2_Y8], for which the enrichment score was inactive: 0.66.

On to VTSLKYSTSPF [BRIP1_Y916_YF], for which the enrichment score was inactive: 0.788.

Regarding QLFGAYLRIHA [BSCL2_Y213_YF], the enrichment score was inactive: 2.53.

In the case of KKYFSYAWPFY [BRDT_Y291_H288Y], the enrichment score was inactive: 2.96.

As for PRPAGYPSTVS [CACNA1C_Y1832], the enrichment score was inactive: 0.671.

Consider VTRKEYFIFLE [CAMKV_Y95], for which the enrichment score was active: 3.24.

On to VHFLVYHHHHH [CACNA1H_Y519_H516Y_YF], for which the enrichment score was inactive: 3.03.

CEAMEYQESKQ [BTK_Y511_L512Q]: the enrichment score is inactive: 0.904.

Consider KPPPSYESEEE [BRD4_Y599_T598S], for which the enrichment score was inactive: 0.512.

Turning to TRLAQYDSNSK [BMX_Y216_S212R], the enrichment score was inactive: 0.64.

Turning to TSLAQYDSNSK [BMX_Y216], the enrichment score is inactive: 0.609.

As to DGQVNYEGFVQ [CALM1_Y139_E141G], the enrichment score was inactive: 0.721.

Regarding HKLSYNEYDFE [BTK_Y40_Y40N], the enrichment score is inactive: 0.527.

With FSTPPYLLEAA [BRIP1_Y921_S919P_YF], the enrichment score is inactive: 0.838.

A further test addresses SHP2 N-SH2 domain T42A. The description is as above. The settings on record: peptide library: pTyr-Var.
Take PEFINYHQHNS [BTK_Y361_L358F]: the enrichment score is inactive: 0.658.

With GDKENYGLPQP [BUB1_Y538_N534D], the enrichment score was inactive: 0.415.

For CPSLLYSPVSS [CAMKK2_Y128_P127L], the enrichment score was inactive: 0.943.

VVKLTYNENDN [CAMKK2_Y183_A182T]: the enrichment score is inactive: 0.855.

As to GVIRHYVVCST [BTK_Y334], the enrichment score is inactive: 0.766.

With STSYDYCRVPM [BST2_Y8], the enrichment score is inactive: 0.6.

VTSLKYSTSPF [BRIP1_Y916_YF]: the enrichment score is inactive: 0.732.

Consider QLFGAYLRIHA [BSCL2_Y213_YF], for which the enrichment score was inactive: 2.17.

For the molecule KKYFSYAWPFY [BRDT_Y291_H288Y], the enrichment score is inactive: 3.03.

In the case of PRPAGYPSTVS [CACNA1C_Y1832], the enrichment score is inactive: 0.608.

For the molecule VTRKEYFIFLE [CAMKV_Y95], the enrichment score is inactive: 2.17.

For VHFLVYHHHHH [CACNA1H_Y519_H516Y_YF], the enrichment score is inactive: 2.83.

Take CEAMEYQESKQ [BTK_Y511_L512Q]: the enrichment score was inactive: 0.622.

In the case of KPPPSYESEEE [BRD4_Y599_T598S], the enrichment score is inactive: 0.606.

TRLAQYDSNSK [BMX_Y216_S212R]: the enrichment score was inactive: 0.433.

As for TSLAQYDSNSK [BMX_Y216], the enrichment score was inactive: 0.564.

For the molecule DGQVNYEGFVQ [CALM1_Y139_E141G], the enrichment score is inactive: 1.15.

Turning to HKLSYNEYDFE [BTK_Y40_Y40N], the enrichment score was inactive: 0.601.

FSTPPYLLEAA [BRIP1_Y921_S919P_YF]: the enrichment score was inactive: 0.921.

The next test addresses SHP2 N-SH2 domain T52S. The test is described as above. The conditions noted are these: peptide library: pTyr-Var.
PEFINYHQHNS [BTK_Y361_L358F]: the enrichment score is inactive: 0.801.

GDKENYGLPQP [BUB1_Y538_N534D]: the enrichment score is inactive: 0.437.

For CPSLLYSPVSS [CAMKK2_Y128_P127L], the enrichment score was inactive: 0.89.

On to VVKLTYNENDN [CAMKK2_Y183_A182T], for which the enrichment score was inactive: 0.864.

For GVIRHYVVCST [BTK_Y334], the enrichment score is inactive: 0.803.

With STSYDYCRVPM [BST2_Y8], the enrichment score was inactive: 0.497.

With VTSLKYSTSPF [BRIP1_Y916_YF], the enrichment score is inactive: 0.776.

For the molecule QLFGAYLRIHA [BSCL2_Y213_YF], the enrichment score is inactive: 2.4.

Regarding KKYFSYAWPFY [BRDT_Y291_H288Y], the enrichment score is active: 3.28.

Turning to PRPAGYPSTVS [CACNA1C_Y1832], the enrichment score was inactive: 0.655.

On to VTRKEYFIFLE [CAMKV_Y95], for which the enrichment score was inactive: 2.67.

Consider VHFLVYHHHHH [CACNA1H_Y519_H516Y_YF], for which the enrichment score is inactive: 2.96.

Take CEAMEYQESKQ [BTK_Y511_L512Q]: the enrichment score is inactive: 0.57.

As for KPPPSYESEEE [BRD4_Y599_T598S], the enrichment score was inactive: 0.361.

With TRLAQYDSNSK [BMX_Y216_S212R], the enrichment score is inactive: 0.641.

As to TSLAQYDSNSK [BMX_Y216], the enrichment score is inactive: 0.741.

Take DGQVNYEGFVQ [CALM1_Y139_E141G]: the enrichment score was inactive: 0.862.

As for HKLSYNEYDFE [BTK_Y40_Y40N], the enrichment score is inactive: 0.767.

For the molecule FSTPPYLLEAA [BRIP1_Y921_S919P_YF], the enrichment score is inactive: 0.853.

The next test has as its target SHP2 N-SH2 domain wild-type. Described as above. The settings on record: peptide library: pTyr-Var.
Take PEFINYHQHNS [BTK_Y361_L358F]: the enrichment score is inactive: 0.807.

Regarding GDKENYGLPQP [BUB1_Y538_N534D], the enrichment score was inactive: 0.532.

Take CPSLLYSPVSS [CAMKK2_Y128_P127L]: the enrichment score is inactive: 1.2.

Turning to VVKLTYNENDN [CAMKK2_Y183_A182T], the enrichment score was inactive: 1.02.

GVIRHYVVCST [BTK_Y334]: the enrichment score is inactive: 0.892.

For the molecule STSYDYCRVPM [BST2_Y8], the enrichment score was inactive: 1.03.

As to VTSLKYSTSPF [BRIP1_Y916_YF], the enrichment score is inactive: 0.687.

For the molecule QLFGAYLRIHA [BSCL2_Y213_YF], the enrichment score was inactive: 2.48.

Regarding KKYFSYAWPFY [BRDT_Y291_H288Y], the enrichment score is inactive: 3.02.

For the molecule PRPAGYPSTVS [CACNA1C_Y1832], the enrichment score is inactive: 0.785.

With VTRKEYFIFLE [CAMKV_Y95], the enrichment score was inactive: 2.77.

Regarding VHFLVYHHHHH [CACNA1H_Y519_H516Y_YF], the enrichment score is active: 3.53.

Take CEAMEYQESKQ [BTK_Y511_L512Q]: the enrichment score was inactive: 1.32.

Consider KPPPSYESEEE [BRD4_Y599_T598S], for which the enrichment score was inactive: 0.728.

For TRLAQYDSNSK [BMX_Y216_S212R], the enrichment score was inactive: 0.614.

As for TSLAQYDSNSK [BMX_Y216], the enrichment score was inactive: 0.566.

For the molecule DGQVNYEGFVQ [CALM1_Y139_E141G], the enrichment score is inactive: 0.846.

Take HKLSYNEYDFE [BTK_Y40_Y40N]: the enrichment score is inactive: 0.565.

As to FSTPPYLLEAA [BRIP1_Y921_S919P_YF], the enrichment score is inactive: 1.03.
